HEK-blue EC50 (pM) - IL-18BP and HEK-blue EC50 (pM) + 300 nM IL-18BP data for one molecule are collected here from patent US20240182536A1.

Assay [1] deals with IL-18 receptors on HEK-Blue IL-18 reporter cells (UniProt Q13478). The assay is described as follows: cell-based or functional assay.
The target of assay [2] is human IL-18 binding protein (human) (UniProt O95998). The assay can be described thus: cell-based or functional assay.
Chain of UniProt O95998 (O95998 31-194 limits assumed): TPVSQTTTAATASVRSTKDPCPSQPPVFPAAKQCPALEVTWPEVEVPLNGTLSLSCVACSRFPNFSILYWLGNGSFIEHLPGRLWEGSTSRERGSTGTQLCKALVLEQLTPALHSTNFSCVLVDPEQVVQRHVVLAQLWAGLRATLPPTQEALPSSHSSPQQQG

Chain of UniProt Q13478 (Q13478 19-541 limits assumed, chain 1 of 2): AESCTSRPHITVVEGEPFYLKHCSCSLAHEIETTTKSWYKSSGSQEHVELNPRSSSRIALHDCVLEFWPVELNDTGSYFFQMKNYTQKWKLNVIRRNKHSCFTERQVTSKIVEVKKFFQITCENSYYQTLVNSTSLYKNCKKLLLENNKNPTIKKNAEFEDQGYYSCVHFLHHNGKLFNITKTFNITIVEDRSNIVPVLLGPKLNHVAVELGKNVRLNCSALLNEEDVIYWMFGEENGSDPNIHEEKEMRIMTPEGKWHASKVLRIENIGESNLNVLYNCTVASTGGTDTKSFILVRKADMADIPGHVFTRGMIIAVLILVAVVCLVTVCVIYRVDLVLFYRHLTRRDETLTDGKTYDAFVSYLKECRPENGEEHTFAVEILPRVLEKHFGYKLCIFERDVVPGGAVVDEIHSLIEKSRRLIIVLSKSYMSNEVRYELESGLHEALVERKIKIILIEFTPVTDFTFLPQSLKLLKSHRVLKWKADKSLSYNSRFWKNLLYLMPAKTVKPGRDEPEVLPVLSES
Chain of UniProt Q13478 (O95256 20-599 limits assumed, chain 2 of 2, further chain): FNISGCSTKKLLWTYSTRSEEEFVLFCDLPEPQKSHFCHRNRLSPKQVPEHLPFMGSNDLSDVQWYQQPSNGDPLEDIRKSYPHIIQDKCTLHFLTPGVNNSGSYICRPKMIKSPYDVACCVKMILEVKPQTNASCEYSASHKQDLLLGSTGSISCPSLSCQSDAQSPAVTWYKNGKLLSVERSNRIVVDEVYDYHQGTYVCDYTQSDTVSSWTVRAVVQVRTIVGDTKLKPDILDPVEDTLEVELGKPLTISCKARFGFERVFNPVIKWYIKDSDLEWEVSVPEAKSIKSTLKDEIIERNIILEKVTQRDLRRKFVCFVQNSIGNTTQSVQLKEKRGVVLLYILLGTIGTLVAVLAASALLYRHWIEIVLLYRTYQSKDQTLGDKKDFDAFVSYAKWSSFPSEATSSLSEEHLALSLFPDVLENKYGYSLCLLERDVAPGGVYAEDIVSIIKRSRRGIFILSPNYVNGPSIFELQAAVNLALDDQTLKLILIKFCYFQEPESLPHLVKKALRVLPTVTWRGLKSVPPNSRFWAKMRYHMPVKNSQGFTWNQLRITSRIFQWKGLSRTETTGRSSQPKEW

B1: Comparator 1-HSA-his-avi (protein, not shown: small tags and cut ends)
chain: YFGKLESKLSVIRNLNDQVLFIDQGNRPLFEDMTDSDCRDNAPRTIFIISKYSDSLARGLAVTISVKCEKISTLSCENKIISFKEMNPPDNIKDTKSDIIFFQRDVPGHSRKMQFESSSYEGYFLACEKERDLFKLILKKEDELGDRSIMFTVQNEDDAHKSEVAHRFKDLGEENFKALVLIAFAQYLQQCPFEDHVKLVNEVTEFAKTCVADESAENCDKSLHTLFGDKLCTVATLRETYGEMADCCAKQEPERNECFLQHKDDNPNLPRLVRPEVDVMCTAFHDNEETFLKKYLYEIARRHPYFYAPELLFFAKRYKAAFTECCQAADKAACLLPKLDELR[letters of about 200 residues not shown]NLIKQNCELFEQLGEYKFQNALLVRYTKKVPQVSTPTLVEVSRNLGKVGSKCCKHPEAKRMPCAEDCLSVFLNQLCVLHEKTPVSDRVTKCCTESLVNGRPCFSALEVDETYVPKEFNAETFTFHADICTLSEKERQIKKQTALVELVKHKPKATKEQLKAVMDDFAAFVEKCCKADDKETCFAEEGKKLVAASQAALGL
B1 showed an HEK-blue EC50 (pM) - IL-18BP in assay [1] of 0.28 pM. Further, the HEK-blue EC50 (pM) + 300 nM IL-18BP in assay [2] was found to be 0.27 pM.
